Among all 310,000 compounds or so, about 2,200 (0.71%) showed an effect of 50% or more. The effect is printed as a negative number. The list shows a part of the results.
target: human ether-à-go-go-related gene (hERG) potassium channel (human, UniProt Q12809); test: primary screen, population patch clamp on CHO cells stably expressing hERG
Sequence (Q12809 whole entry, looked up): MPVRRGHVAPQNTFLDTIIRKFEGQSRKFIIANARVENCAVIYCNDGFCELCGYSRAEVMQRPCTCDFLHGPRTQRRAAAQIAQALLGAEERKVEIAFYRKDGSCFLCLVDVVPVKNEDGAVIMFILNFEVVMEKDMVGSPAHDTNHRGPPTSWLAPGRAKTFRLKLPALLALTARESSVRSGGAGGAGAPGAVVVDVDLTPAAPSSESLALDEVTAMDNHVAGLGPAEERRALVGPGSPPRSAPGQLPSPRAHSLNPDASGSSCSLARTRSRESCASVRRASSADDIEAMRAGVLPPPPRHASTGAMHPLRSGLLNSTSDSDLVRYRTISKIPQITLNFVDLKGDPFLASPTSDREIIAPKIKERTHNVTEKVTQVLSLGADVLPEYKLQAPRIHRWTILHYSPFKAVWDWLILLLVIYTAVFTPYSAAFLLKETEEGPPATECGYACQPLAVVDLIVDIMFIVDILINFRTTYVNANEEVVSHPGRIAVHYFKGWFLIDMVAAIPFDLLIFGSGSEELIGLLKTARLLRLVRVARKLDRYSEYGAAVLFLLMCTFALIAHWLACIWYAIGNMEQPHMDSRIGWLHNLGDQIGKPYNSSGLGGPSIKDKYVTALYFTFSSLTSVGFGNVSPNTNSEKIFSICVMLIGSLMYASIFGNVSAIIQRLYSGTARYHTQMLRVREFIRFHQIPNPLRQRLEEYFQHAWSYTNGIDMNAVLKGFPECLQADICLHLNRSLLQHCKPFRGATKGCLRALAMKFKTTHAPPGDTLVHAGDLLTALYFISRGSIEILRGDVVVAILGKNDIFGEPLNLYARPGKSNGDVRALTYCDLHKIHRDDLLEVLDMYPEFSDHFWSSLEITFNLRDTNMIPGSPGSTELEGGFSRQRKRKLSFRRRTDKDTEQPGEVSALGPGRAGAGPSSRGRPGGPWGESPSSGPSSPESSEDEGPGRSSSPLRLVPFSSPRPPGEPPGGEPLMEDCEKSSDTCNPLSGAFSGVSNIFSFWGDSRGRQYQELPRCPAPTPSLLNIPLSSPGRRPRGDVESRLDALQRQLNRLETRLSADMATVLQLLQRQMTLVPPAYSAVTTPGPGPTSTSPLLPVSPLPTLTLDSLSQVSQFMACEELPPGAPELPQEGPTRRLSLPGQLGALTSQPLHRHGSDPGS

SMILES | hERG current change (%, negative = inhibition) at 1uM
O=C(O)c1ccccc1C(=O)NNc1ccc(F)cc1F | 1.29%
O=C(NCc1ccc(F)cc1)c1cccc(S(=O)(=O)N2CCCC2)c1 | -6.47%
COc1cccc(C(=O)/C=C/Nc2ccc(S(=O)(=O)Nc3cnc4ccccc4n3)cc2)c1 | -6.65%
COc1ccc(C2=NN(CN3C(=O)C(=O)c4ccccc43)C(c3ccc(OC)cc3)C2)cc1 (centres unmarked) | 11.5%
CCOC(=O)c1ccccc1NC(=O)N[C@@H](C)C(=O)OC | 10.5%
COc1ccc(N2CCN(C(=O)c3cccc(N4C(=O)C5C6C=CC(C6)C5C4=O)c3)CC2)cc1 (centres unmarked) | 8.23%
O=C(Nc1ccc2c(c1)OCO2)C1CC(=O)N(c2ccc(F)cc2)C1 (centres unmarked) | 10%
O=C1CC2C(CC(OC(=O)c3ccc(-c4ccccc4)cc3)C2CO)O1 (centres unmarked) | 9.75%
Cc1cccc(C(=O)NCc2ccco2)c1 | 14.9%
C#CCOCCOCCOCCNc1nc(N2CCN(C(=O)Cn3cc(CCO)nn3)CC2)nc(N2CCN(C(=O)[C@H]([C@@H](C)O)n3cc(CCCC[NH3+])nn3)CC2)n1.[Cl-] | 11.6%
COc1ccc(S(=O)(=O)N2CCCCCC2)cc1C(=O)N(C)CC(=O)Nc1ccccc1Cl | 2.81%
COc1ccccc1N1CCN(C2CC(=O)N(c3ccc(Cl)cc3)C2=O)CC1 (centres unmarked) | 17.5%
COc1ccc(NC(=O)CSc2nc(=O)n(CCN3CCOCC3)c3c2CCC3)cc1 | 12.5%
Cc1ccc(OCc2cc(C(=O)N3CCN(C4CCCC4)CC3)no2)cc1C | 5.22%
COc1cc(CNCc2ccccn2)ccc1OCc1ccccc1Cl.Cl | -1.56%
CCCCCCn1c(SCC(=O)c2ccccc2)nc2c1c(=O)[nH]c(=O)n2C | 0.521%
COc1ccc(OC)c(NC(=O)CSc2nnc(Cn3c(=O)sc4ccccc43)n2C)c1 | -14.6%
O=C(COC(=O)CCSc1ccccc1)NCc1ccccc1Cl | 8.01%
CCOc1cc2[nH]c(=S)n(CCOC)c(=O)c2cc1OCC | 11.1%
O=C(CN1C(=O)CSc2ccc(S(=O)(=O)N3CCCCC3)cc21)NCc1ccccc1 | -4.88%
CCOc1ccc(C(CC(=O)O)NC(=O)c2cccs2)cc1 (centres unmarked) | 10.3%
COc1cccc(CC(=O)NCC2(N3CCCCC3)CCCCC2)c1 | 33.4%

SMILES | hERG current change (%, negative = inhibition) at 1uM
NC(=O)C1CCN(C2CC(=O)N(c3cccc(F)c3)C2=O)CC1 (centres unmarked) | -16%
COc1ccc(CCNC2CC(=O)N(C3CCCCC3)C2=O)cc1OC (centres unmarked) | -1.5%
COc1ccc(-c2onc(C)c2-c2cnn(-c3ccccc3)c2)c(O)c1 | 5.81%
O=S(=O)(Nc1cccc(-c2cn3c(n2)SCC3)c1)c1ccccc1F | 8.8%
Nn1c(SC/C=C/c2ccccc2)nnc1-c1ccccn1 | 5.78%
Cc1cccc(N2CCN(C(=S)NC3CCCCC3)CC2)c1C | 11.9%
CC(C)N(Cc1nc(-c2ccccc2)no1)C(=O)C(Cl)(Cl)Cl | 12.1%
CCN(CC)CCn1c(N)nc2ccccc21.Cl | 10.1%
O=C(Nc1nnc(-c2cccc(F)c2)s1)Nc1ccccc1F | 11.5%
CCN1C(=O)c2cccc3c(Cl)ccc(c23)C1=O | 14.1%
CC(C)Cc1n[nH]c(=O)[nH]1 | -4.9%
COc1cccc(OCCOCCOc2ccc(C)cc2[N+](=O)[O-])c1 | 5.23%
CCOCCCNC(=O)C1CC(=O)N(CCc2ccccc2)C1 (centres unmarked) | 13.2%
CCn1nc([N+](=O)[O-])c2c(-c3nc4ccccc4o3)c(N)n(CCCOC)c2c1=O | 9.96%
COc1ccc(C2/C(=C(\O)c3ccc4c(c3)OCCO4)C(=O)C(=O)N2Cc2cccnc2)cc1OC (centres unmarked) | 15.3%
O=C(c1c(F)cccc1F)N1CCN(c2cccc(C(F)(F)F)c2)CC1 | 15.4%
CCOc1ccc(OCc2ccc(C(=O)N3CCCC(C)C3)cc2)cc1 (centres unmarked) | -7.05%
COc1ccccc1Nc1nc(N)nc(CN2CCc3ccccc3C2)n1 | -2.7%
COCCOC(=O)C1=C(C)NC(=O)NC1c1cc2c(cc1Br)OCO2 (centres unmarked) | 15.1%
COC(=O)c1scc(C)c1N/N=C(\C)c1ccc(F)cc1 | -7.28%
COc1cc(CNC(C)c2ccccc2)cc(Br)c1OCc1ccc(F)cc1 (centres unmarked) | 15%
COc1cccc(NC(=S)NNC(=O)Cn2nc(C(F)(F)F)cc2C)c1 | 9.84%
